The values below come from the supplement of paper PMC7826260.

Common to all, as to assay: uncleaved DNA left, log2 of reads against the no-enzyme library (log2 ratio); higher = less cleavage (more negative = more Rep cleavage of the k-mer); sequences stand for … in CTCGTCCG…ACCGGAGA
Test [1] has as its system T1, Rep nickase domain of Muscovy duck circovirus.
T1 sequence (residues 1-111, tag not shown): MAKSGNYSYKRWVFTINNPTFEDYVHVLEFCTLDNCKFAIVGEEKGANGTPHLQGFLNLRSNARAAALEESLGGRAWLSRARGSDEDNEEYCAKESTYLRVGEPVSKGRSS
The procedure: (§1)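 A pool of 90-nt single-stranded DNAs with seven random bases just before the constant AC of the nick site (name = the seven bases) was cut by 3 µM recombinant His6-SUMO-tagged Rep nickase domain (300 nM DNA, 50 mM HEPES pH 8.0, 50 mM NaCl, 1 mM MnCl2, 1 h, 37 °C, three replicates). Uncut DNA was amplified and sequenced.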

The test system of test [2] is T2, Rep nickase domain of banana bunchy top virus.
T2 sequence (residues 1-94, tag not shown): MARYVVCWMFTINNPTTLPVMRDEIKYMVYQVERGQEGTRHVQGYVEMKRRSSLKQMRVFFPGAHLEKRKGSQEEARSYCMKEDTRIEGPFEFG
The procedure: as §1
Test [3] deals with T3, Rep nickase domain of cabbage leaf curl virus.
T3 sequence (residues 1-116, tag not shown): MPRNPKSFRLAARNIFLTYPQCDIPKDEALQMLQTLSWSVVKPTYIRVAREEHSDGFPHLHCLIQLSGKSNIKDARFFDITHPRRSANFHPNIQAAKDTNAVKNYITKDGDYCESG
The procedure: as §1
Test [4] has as its system T4, Rep nickase domain of chickpea chlorotic dwarf virus.
T4 sequence (residues 1-124, tag not shown): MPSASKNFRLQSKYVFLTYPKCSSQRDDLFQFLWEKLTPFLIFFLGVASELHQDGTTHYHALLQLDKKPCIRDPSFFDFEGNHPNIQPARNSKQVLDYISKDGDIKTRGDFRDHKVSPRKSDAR
On the procedure: as §1
Test [5] concerns T5, Rep nickase domain of faba bean necrotic yellows virus.
T5 sequence (residues 1-98, tag not shown): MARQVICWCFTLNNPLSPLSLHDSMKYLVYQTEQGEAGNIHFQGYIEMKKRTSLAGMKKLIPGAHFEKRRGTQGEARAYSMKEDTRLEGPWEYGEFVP
On the procedure: as §1
For test [6], the system named is T6, Rep nickase domain of maize striate mosaic virus.
T6 sequence (residues 1-117, tag not shown): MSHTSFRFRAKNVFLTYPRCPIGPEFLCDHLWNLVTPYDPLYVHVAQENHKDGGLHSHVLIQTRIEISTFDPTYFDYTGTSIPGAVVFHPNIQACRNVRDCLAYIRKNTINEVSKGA
On the procedure: as §1
Test [7] concerns T7, Rep nickase domain of porcine circovirus 2.
T7 sequence (residues 2-116, tag not shown): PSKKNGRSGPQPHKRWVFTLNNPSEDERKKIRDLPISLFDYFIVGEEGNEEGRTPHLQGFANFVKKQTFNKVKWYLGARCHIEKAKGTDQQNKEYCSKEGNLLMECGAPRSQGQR
On the procedure: as §1
The subject of test [8] is T8, Rep nickase domain of tomato golden mosaic virus.
T8 sequence (residues 1-124, tag not shown): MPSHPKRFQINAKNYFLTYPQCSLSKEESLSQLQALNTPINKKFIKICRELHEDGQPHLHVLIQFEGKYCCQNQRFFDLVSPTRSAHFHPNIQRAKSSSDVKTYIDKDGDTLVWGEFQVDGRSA
The procedure: as §1
Test [9] relates to T9, Rep nickase domain of tomato yellow leaf curl virus.
T9 sequence (residues 1-136, tag not shown): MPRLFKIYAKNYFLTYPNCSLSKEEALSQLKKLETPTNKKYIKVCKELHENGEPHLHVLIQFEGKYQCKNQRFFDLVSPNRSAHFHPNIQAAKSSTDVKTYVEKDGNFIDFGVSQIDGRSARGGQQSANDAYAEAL
The procedure: as §1
Test [10] concerns T10, Rep nickase domain of wheat dwarf virus.
T10 sequence (residues 1-137, tag not shown): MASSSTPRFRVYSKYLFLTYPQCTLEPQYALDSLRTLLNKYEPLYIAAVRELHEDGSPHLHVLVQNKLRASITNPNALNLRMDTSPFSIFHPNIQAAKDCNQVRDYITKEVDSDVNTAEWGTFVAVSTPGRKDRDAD
On the procedure:
as §1

Some of the results follow. One pool of 16,384 single-stranded DNAs met each Rep nickase domain in vitro (1 h at 37 °C, 3 µM enzyme); the outer parts of the 90-letter strands are left off. A value is the log2 ratio of uncut reads to the pool without enzyme; more negative means more cut, near 0 not cut, and no call is made. The scaling is to total reads, so uncut sequences can rise above 0 when many others are cut.

As to ACTGTTC, the “uncleaved DNA left (log2)” value was 0.0129 in [1]; -0.0279 in test [2]; -0.101 in [3]; 0.0949 in test [4]; -0.0384 in test [5]; 0.0296 in test [6]. Moreover, the “uncleaved DNA left (log2)” value in [7] was -0.0105; in [8], 0.0738; in test [9], 0.0407; in [10], 0.101.
Consider CGTATCT, for which the “uncleaved DNA left (log2)” value was 0.116 in test [1]; 0.149 in test [2]; 0.172 in test [3]; -1.12 in test [4]; 0.183 in test [5]; 0.0698 in test [6]. Besides, the “uncleaved DNA left (log2)” value was -0.926 in [7], 0.11 in test [8], 0.218 in test [9] and 0.195 in [10].
Consider TGCACAG, for which the “uncleaved DNA left (log2)” value in test [1] is -0.0197; in [2], 0.0944; in [3], -0.335; in test [4] it was -0.413; in test [5] it was 0.08; in test [6], -0.569. Moreover, the “uncleaved DNA left (log2)” value in [7] is 0.146; in test [8], 0.0625; in test [9] it was 0.111; in test [10], -0.0588.
For the sequence AAGACTG, the “uncleaved DNA left (log2)” value in test [1] was 0.0497; in test [2], 0.00234; in test [3], -0.0685; in [4], 0.725; in test [5] it was -0.0464; in test [6], 1.73. In addition, the “uncleaved DNA left (log2)” value was 0.0568 in test [7], 0.0625 in test [8], -0.127 in test [9] and 0.028 in [10].
With GATCTTG, the “uncleaved DNA left (log2)” value in test [1] is 0.0883; in test [2], 0.0768; in test [3], -0.113; in [4], -0.508; in [5], 0.0507; in test [6], -0.363. Besides, the “uncleaved DNA left (log2)” value in test [7] was determined as 0.104; in [8], 0.0316; in test [9], 0.0993; in test [10], 0.1.
As to ACTTCAA, the “uncleaved DNA left (log2)” value in test [1] is 0.0706; in test [2] it was 0.0387; in test [3], -0.197; in test [4], -0.252; in [5] it was 0.145; in test [6], -0.749. The “uncleaved DNA left (log2)” value in test [7] is -0.018; in test [8] it was 0.103; in test [9], 0.0137; in [10], 0.039.
For TCAGAGT, the “uncleaved DNA left (log2)” value in test [1] is 0.181; in test [2] it was 0.189; in test [3], 0.292; in [4], 0.192; in [5] it was 0.169; in [6] it was -0.0654. Also, the “uncleaved DNA left (log2)” value in test [7] turned out to be 0.192; in [8], 0.0495; in [9], 0.107; in [10] it was 0.176.
As for TTATGGG, the “uncleaved DNA left (log2)” value is 0.0627 in [1]; -0.0298 in test [2]; -0.363 in [3]; -0.416 in test [4]; 0.0506 in test [5]; -0.747 in test [6]. Besides, the “uncleaved DNA left (log2)” value is 0.168 in test [7], 0.0413 in test [8], -0.0208 in test [9] and 0.0316 in test [10].
Take TGATATG: the “uncleaved DNA left (log2)” value was 0.11 in test [1]; -0.0436 in test [2]; -0.341 in test [3]; -0.236 in [4]; 0.0818 in test [5]; -0.796 in test [6]. For the same sequence, the “uncleaved DNA left (log2)” value was 0.05 in test [7], 0.0247 in test [8], -0.0886 in test [9] and -0.104 in test [10].
In the case of GGTACCT, the “uncleaved DNA left (log2)” value in test [1] was -0.0778; in test [2] it was 0.0562; in [3], 0.493; in [4], 1.19; in test [5], -0.149; in test [6], 1.87. Moreover, the “uncleaved DNA left (log2)” value in test [7] was -0.0552; in [8], -0.099; in test [9] it was -0.0541; in test [10] it was 0.124.
For the sequence CCAACAG, the “uncleaved DNA left (log2)” value in test [1] is -0.0489; in test [2], -0.0481; in [3], -0.67; in [4] it was -1.38; in [5], 0.0212; in test [6], -1.07. For the same sequence, the “uncleaved DNA left (log2)” value in test [7] was 0.12; in test [8], 0.0601; in [9], 0.0183; in test [10], -0.105.
CTCTTAG: the “uncleaved DNA left (log2)” value in [1] was 0.0448; in test [2], -0.0385; in test [3], -0.885; in test [4] it was -0.324; in [5], -0.133; in test [6], -1.13. Moreover, the “uncleaved DNA left (log2)” value was 0.155 in test [7], -0.0269 in test [8], -0.00265 in test [9] and -0.0942 in test [10].
Consider GAGGAAG, for which the “uncleaved DNA left (log2)” value in [1] was 0.185; in [2] it was 0.025; in test [3], -0.114; in [4], 0.168; in test [5], -0.0731; in test [6], -0.456. Moreover, the “uncleaved DNA left (log2)” value in [7] is 0.0884; in test [8], 0.076; in [9], 0.00577; in test [10], -0.0621.
GTGTCTC: the “uncleaved DNA left (log2)” value was -0.0138 in test [1]; 0.0552 in test [2]; 0.304 in [3]; 0.873 in test [4]; -0.0262 in test [5]; 1.86 in test [6]. Also, the “uncleaved DNA left (log2)” value came out at 0.121 in [7], 0.0691 in [8], 0.0048 in test [9] and 0.0618 in test [10].
For the sequence CATCAAG, the “uncleaved DNA left (log2)” value in test [1] was 0.132; in [2] it was 0.0675; in test [3], -0.724; in [4], -0.291; in [5] it was 0.0313; in [6], -1.04. The “uncleaved DNA left (log2)” value in [7] is 0.198; in test [8], 0.0619; in test [9] it was -0.0661; in test [10] it was -0.0701.
